Data taken from ChEMBL document CHEMBL5724801, “EUbOPEN Chemogenomics Library - Multiplex” (2024).
For part of its entries the source gives two or more results. This is not the full list of results. An entry can have further records. The values listed for one entry are repeats (runs, samples, wells, individuals or studies).

How the values were obtained:
Assay type in all cases: toxicity, cell-based
Fibroblast = experiment: Multiplex assay against human fibroblast
In short: (§1)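 Live cells were stained at seeding with Hoechst33342, BioTracker Green Microtubule Cytoskeleton Dye, MitoTracker Red and Annexin V Alexa Fluor 680, then imaged on a CQ1 microscope at 37°C and 5% CO2 after compound addition. CellPathfinder machine-learning gating split cells into Hoechst high-intensity objects or normal cells. Normal cells were split into healthy, pyknosed or fragmented nuclei, and pyknosed cells into mitotic or apoptotic. Tubulin, mitochondrial-mass and membrane-permeability phenotypes are per cents of healthy-nucleus cells.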

HEK-293T = experiment: Multiplex assay against HEK293T; conditions: human; in short: as §1
U2OS = experiment: Multiplex assay against U2OS; conditions: human; in short: as §1
[1] = 12 h, 1 µM, compound concentration 1 uM
[2] = 48 h, 1 µM, compound concentration 1 uM
[3] = 24 h, 1 µM, compound concentration 1 uM
[4] = 24 h, 10 µM, compound concentration 10 uM
[5] = 48 h, 10 µM, compound concentration 10 uM
[6] = 12 h, 10 µM, compound concentration 10 uM

Row | Compound | Population Mitochondria Different-Phenotype (%) (Fibroblast; [2]) | Population Healthy Nuclei (%) (HEK-293T; [1]) | Population Mitochondria Different-Phenotype (%) (HEK-293T; [1]) | Population Healthy Nuclei (%) (HEK-293T; [4]) | Population Apoptotic (%) (HEK-293T; [2]) | Population Pyknosed Nuclei (%) (HEK-293T; [2]) | Population Tubulin-Different-Phenotype (%) (HEK-293T; [2]) | Total Cell Count (HEK-293T; [2]) | Population Tubulin-Different-Phenotype (%) (HEK-293T; [5]) | Total Cell Count (HEK-293T; [5]) | Population Mitochondria Different-Phenotype (%) (U2OS; [6]) | Total Cell Count (U2OS; [4]) | Total Cell Count (U2OS; [2]) | Total Cell Count (U2OS; [5]) | Population Apoptotic (%) (Fibroblast; [3]) | Population Healthy Nuclei (%) (HEK-293T; [6]) | Population Mitochondria Different-Phenotype (%) (HEK-293T; [6]) | Population Tubulin-Different-Phenotype (%) (HEK-293T; [1]) | Total Cell Count (HEK-293T; [3]) | Population Tubulin-Different-Phenotype (%) (HEK-293T; [6]) | other results
1 | CCOc1ccccc1C(=O)NCC1(N2CCN(CC)CC2)CCCCC1 | 15.75% and 3.47% | 47.94% and 11.03% | 34.44% and 6.25% | 64.34% and 18.18% | 5.41% and 18.87% | 14.42% and 56.38% | 2.32% and 61.04% | 1026 and 188 | 13.6% and 79.59% | 733 and 198 | 4.82% and 73.33% | 562 and 159 | 847 and 229 | 870 and 212 |  |  |  |  |  |  | Population Fragmented Nuclei (%) (Fibroblast; [1]): 19.3% and 6.1%; Population Healthy Nuclei (%) (HEK-293T; [3]): 68.34% and 16.57%; Population Mitochondria Different-Phenotype (%) (U2OS; [1]): 0.31% and 12.26%; Population Mitochondria Different-Phenotype (%) (U2OS; [4]): 5.11% and 79.81%; Population Mitochondria Different-Phenotype (%) (U2OS; [2]): 0.13% and 11.59%; Population Membrane Permeable-Phenotype (%) (U2OS; [5]): 2.63% and 13.33%; Population Mitochondria Different-Phenotype (%) (U2OS; [5]): 2.91% and 35.56%
2 | CC(C)C[C@H](NC(=O)c1cc2ccccc2s1)C(=O)N1CCN(C(=O)[C@H](CO)NS(=O)(=O)c2ccc(Cl)cc2Cl)CC1 |  |  |  | 45.13% and 14.09% |  | 13.98% and 46.73% | 4.67% and 57.27% | 1017 and 215 |  |  |  |  | 706 and 116 |  | 3.92% and 51.16% | 39.24% and 8.63% | 42.48% and 8.33% |  |  |  | Population Apoptotic (%) (Fibroblast; [1]): 11.11% and 44.44%; Population Apoptotic (%) (Fibroblast; [2]): 14.29% and 50%; Population Membrane Permeable-Phenotype (%) (Fibroblast; [2]): 1.34% and 11.64%; Population Mitochondria Different-Phenotype (%) (U2OS; [1]): 1.66% and 20%; Total Cell Count (U2OS; [1]): 392 and 89; Population Mitochondria Different-Phenotype (%) (U2OS; [3]): 0.7% and 11.11%; Population Mitotic Cells (%) (U2OS; [3]): 28.24% and 9.09%; Total Cell Count (U2OS; [3]): 439 and 88; Population Mitochondria Different-Phenotype (%) (U2OS; [2]): 0.53% and 15.29%
3 | COCCNc1nc2ccc(C#CC3(O)CCCCC3)cc2n1-c1ccnc(N)n1 | 20.87% and 4% | 58.36% and 13.74% | 32.27% and 5.56% | 44.47% and 14.11% |  |  | 1.02% and 19.88% | 1579 and 254 | 7.82% and 53.23% | 790 and 206 | 0.57% and 43.48% |  | 894 and 194 | 769 and 249 |  | 31.43% and 9.64% | 16.36% and 50% | 4.55% and 16.67% | 595 and 168 |  | Total Cell Count (U2OS; [1]): 363 and 109; Total Cell Count (U2OS; [3]): 465 and 128; Population Mitochondria Different-Phenotype (%) (U2OS; [4]): 0% and 27.21%; Population Mitochondria Different-Phenotype (%) (U2OS; [5]): 0.79% and 10.9%
4 | COc1ccc(-n2c(C)c([N+](=O)[O-])c3ccc(O)cc32)cc1 |  | 56.94% and 11.89% |  |  |  | 10.35% and 31.52% | 2.78% and 52.89% | 1035 and 184 | 4.89% and 37.74% | 702 and 161 |  | 600 and 180 |  | 1001 and 290 |  | 58.84% and 16.18% |  | 8.63% and 47.06% | 545 and 148 | 8.23% and 31.82% | Population Tubulin-Different-Phenotype (%) (Fibroblast; [2]): 5.45% and 22.09%; Total Cell Count (HEK-293T; [6]): 414 and 137; Population Tubulin-Different-Phenotype (%) (HEK-293T; [3]): 23.93% and 4.88%; Total Cell Count (U2OS; [6]): 466 and 140
5 | O=C1c2c(Br)c(Br)c(Br)c(Br)c2C(=O)N1c1ncc[nH]1 | 18.75% and 2.28% |  |  |  |  | 8.71% and 27.75% | 1% and 32.2% | 1595 and 177 | 0.59% and 13.99% | 1337 and 308 |  | 615 and 187 |  | 1101 and 306 | 8.57% and 40% | 68.54% and 18.75% |  | 4.17% and 20% | 602 and 118 | 5.74% and 40% | Population Mitochondria Different-Phenotype (%) (Fibroblast; [6]): 1.6% and 17.61%; Population Apoptotic (%) (Fibroblast; [2]): 36.36% and 7.14%; Population Apoptotic (%) (Fibroblast; [5]): 75% and 23.53%; Population Mitochondria Different-Phenotype (%) (Fibroblast; [5]): 17.22% and 5.5%; Population Mitotic Cells (%) (Fibroblast; [5]): 25% and 76.47%; Population Tubulin-Different-Phenotype (%) (Fibroblast; [5]): 5.56% and 24.5%; Population Pyknosed Nuclei (%) (HEK-293T; [3]): 15.95% and 57.63%; Population Pyknosed Nuclei (%) (HEK-293T; [4]): 15.77% and 60.92%; Total Cell Count (HEK-293T; [4]): 577 and 174; Total Cell Count (U2OS; [6]): 438 and 140
6 | Cc1noc(C)c1-c1cnc2c(-c3ccc(C(=O)O)cc3)cn([C@@H](C)c3ccccn3)c2c1 [PLX-51107] | 14.29% and 0.46% | 58% and 18.54% | 24.01% and 3.57% |  | 5.04% and 20.48% | 9.62% and 31.32% |  | 1447 and 265 |  |  |  |  |  | 755 and 232 | 17.86% and 5.56% |  | 14.79% and 1.37% |  | 754 and 230 |  | Population Mitochondria Different-Phenotype (%) (Fibroblast; [5]): 17.44% and 4.21%; Total Cell Count (HEK-293T; [1]): 481 and 151; Population Fragmented Nuclei (%) (HEK-293T; [6]): 2.27% and 19.57%; Population Fragmented Nuclei (%) (HEK-293T; [4]): 1.23% and 19.09%; Population Apoptotic (%) (HEK-293T; [5]): 4.67% and 19.13%; Population Fragmented Nuclei (%) (HEK-293T; [5]): 3.37% and 16.98%
7 | Cl.Clc1cc2cc(c1)-c1cnn3ccc(nc13)NCCOCCO2 | 18.03% and 2.15% | 61.13% and 11.54% |  |  | 2.29% and 16.18% | 9.51% and 33.33% | 1.33% and 31.06% | 1378 and 206 | 0.4% and 19.67% | 862 and 265 | 0.24% and 10.88% |  | 936 and 308 |  |  |  |  | 1.84% and 16.67% | 539 and 148 | 6.55% and 41.46% | Population Apoptotic (%) (Fibroblast; [4]): 9.68% and 30.3%; Population Tubulin-Different-Phenotype (%) (Fibroblast; [2]): 7.65% and 24.46%; Population Healthy Nuclei (%) (HEK-293T; [3]): 78.11% and 23.65%; Population Pyknosed Nuclei (%) (HEK-293T; [3]): 20.96% and 71.62%; Population Apoptotic (%) (U2OS; [1]): 43.75% and 5.88%
